Some of the results follow.
Key:
Assay in all cases: glycan array binding signal (z-score within array); higher = stronger binding
Conditions in all cases: glycan notation: IUPAC condensed, linker removed
GalNAc(b1-3)Gal = biological target: GalNAc(b1-3)Gal
Procedure, shortened: (§1)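 Glycan array binding is given as a within-array Z-score, which can be read as non-binding when negative. The arrays, 3228 of them, came from the Consortium for Functional Glycomics database and were retained only where the protein sequence was available. Z-scores were averaged across arrays of the same protein sequence at different concentrations or buffers and across linkers.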

[1] = biological target: GalNAc(b1-3)Gal(a1-4)Gal(b1-4)GlcNAc
Procedure, shortened: as §1

GalNAc(b1-3)GalNAc = biological target: GalNAc(b1-3)GalNAc
Procedure, shortened: as §1

GalNAc(b1-4)GlcNAc = biological target: GalNAc(b1-4)GlcNAc
Procedure, shortened: as §1

Glc(a1-4)Glc = biological target: Glc(a1-4)Glc
Procedure, shortened: as §1

Glc(a1-6)Glc(a1-6)Glc = biological target: Glc(a1-6)Glc(a1-6)Glc
Procedure, shortened: as §1

Glc(b1-4)Glc = biological target: Glc(b1-4)Glc
Procedure, shortened: as §1

Glc(b1-6)Glc = biological target: Glc(b1-6)Glc
Procedure, shortened: as §1

GlcA(b1-3)Gal = biological target: GlcA(b1-3)Gal
Procedure, shortened: as §1

GlcA(b1-3)GlcNAc = biological target: GlcA(b1-3)GlcNAc
Procedure, shortened: as §1

GlcA(b1-6)Gal = biological target: GlcA(b1-6)Gal
Procedure, shortened: as §1

[2] = biological target: GlcNAc(a1-3)Gal(b1-4)GlcNAc
Procedure, shortened: as §1

[3] = biological target: GlcNAc(a1-6)Gal(b1-4)GlcNAc
Procedure, shortened: as §1

[4] = biological target: GlcNAc(b1-2)Gal(b1-3)GalNAc
Procedure, shortened: as §1

[5] = biological target: GlcNAc(b1-2)Man(a1-3)[GlcNAc(b1-2)Man(a1-6)]Man(b1-4)GlcNAc(b1-4)GlcNAc
Procedure, shortened: as §1

GlcNAc(b1-3)Gal = biological target: GlcNAc(b1-3)Gal
Procedure, shortened: as §1

[6] = biological target: GlcNAc(b1-3)Gal(b1-3)GalNAc
Procedure, shortened: as §1

GlcNAc(b1-3)Gal(b1-4)Glc = biological target: GlcNAc(b1-3)Gal(b1-4)Glc
Procedure, shortened: as §1

[7] = biological target: GlcNAc(b1-3)Gal(b1-4)GlcNAc
Procedure, shortened: as §1

[8] = biological target: GlcNAc(b1-3)Gal(b1-4)GlcNAc(b1-3)Gal(b1-4)GlcNAc
Procedure, shortened: as §1

GlcNAc(b1-3)GalNAc = biological target: GlcNAc(b1-3)GalNAc
Procedure, shortened: as §1

GlcNAc(b1-3)Man = biological target: GlcNAc(b1-3)Man
Procedure, shortened: as §1

[9] = biological target: GlcNAc(b1-3)[GlcNAc(b1-4)][GlcNAc(b1-6)]GlcNAc
Procedure, shortened: as §1

[10] = biological target: GlcNAc(b1-3)[GlcNAc(b1-6)]Gal(b1-4)GlcNAc
Procedure, shortened: as §1

[11] = biological target: GlcNAc(b1-3)[GlcNAc(b1-6)]GalNAc
Procedure, shortened: as §1

[12] = biological target: GlcNAc(b1-3)[GlcNAc(b1-6)]GlcNAc(b1-4)GlcNAc
Procedure, shortened: as §1

[13] = biological target: GlcNAc(b1-4)Gal(b1-4)GlcNAc
Procedure, shortened: as §1

GlcNAc(b1-4)GlcNAc = biological target: GlcNAc(b1-4)GlcNAc
Procedure, shortened: as §1

[14] = biological target: GlcNAc(b1-4)GlcNAc(b1-4)GlcNAc
Procedure, shortened: as §1

[15] = biological target: GlcNAc(b1-4)GlcNAc(b1-4)GlcNAc(b1-4)GlcNAc(b1-4)GlcNAc
Procedure, shortened: as §1

[16] = biological target: GlcNAc(b1-4)GlcNAc(b1-4)GlcNAc(b1-4)GlcNAc(b1-4)GlcNAc(b1-4)GlcNAc
Procedure, shortened: as §1

[17] = biological target: GlcNAc(b1-4)[GlcNAc(b1-6)]GalNAc
Procedure, shortened: as §1

[18] = biological target: GlcNAc(b1-6)Gal(b1-4)GlcNAc
Procedure, shortened: as §1

GlcNAc(b1-6)GalNAc = biological target: GlcNAc(b1-6)GalNAc
Procedure, shortened: as §1

GlcNAc3Prop(b1-4)GlcNAc = biological target: GlcNAc3Prop(b1-4)GlcNAc
Procedure, shortened: as §1

Kdn(a2-3)Gal(b1-3)GlcNAc = biological target: Kdn(a2-3)Gal(b1-3)GlcNAc
Procedure, shortened: as §1

Kdn(a2-3)Gal(b1-4)GlcNAc = biological target: Kdn(a2-3)Gal(b1-4)GlcNAc
Procedure, shortened: as §1

[19] = biological target: Man(a1-2)Man(a1-2)Man(a1-3)Man
Procedure, shortened: as §1

[20] = biological target: Man(a1-2)Man(a1-2)Man(a1-6)[Man(a1-3)]Man
Procedure, shortened: as §1

Man(a1-2)Man(a1-3)Man = biological target: Man(a1-2)Man(a1-3)Man
Procedure, shortened: as §1

[21] = biological target: Man(a1-2)Man(a1-3)[Man(a1-2)Man(a1-6)]Man
Procedure, shortened: as §1

[22] = biological target: Man(a1-2)Man(a1-3)[Man(a1-2)Man(a1-6)]Man(a1-6)[Man(a1-2)Man(a1-2)Man(a1-3)]Man
Procedure, shortened: as §1

[23] = biological target: Man(a1-2)Man(a1-3)[Man(a1-2)Man(a1-6)]Man(a1-6)[Man(a1-2)Man(a1-2)Man(a1-3)]Man(b1-4)GlcNAc(b1-4)GlcNAc
Procedure, shortened: as §1

[24] = biological target: Man(a1-2)Man(a1-3)[Man(a1-6)]Man(a1-6)[Man(a1-2)Man(a1-3)]Man(b1-4)GlcNAc(b1-4)GlcNAc
Procedure, shortened: as §1

[25] = biological target: Man(a1-2)Man(a1-6)[Man(a1-3)]Man(a1-6)[Man(a1-2)Man(a1-2)Man(a1-3)]Man
Procedure, shortened: as §1

[26] = biological target: Man(a1-2)Man(a1-6)[Man(a1-3)]Man(a1-6)[Man(a1-2)Man(a1-2)Man(a1-3)]Man(b1-4)GlcNAc(b1-4)GlcNAc
Procedure, shortened: as §1

Man(a1-3)[Man(a1-6)]Man = biological target: Man(a1-3)[Man(a1-6)]Man
Procedure, shortened: as §1

[27] = biological target: Man(a1-3)[Man(a1-6)]Man(a1-6)[Man(a1-2)Man(a1-3)]Man(b1-4)GlcNAc(b1-4)GlcNAc
Procedure, shortened: as §1

[28] = biological target: Man(a1-3)[Man(a1-6)]Man(a1-6)[Man(a1-3)]Man
Procedure, shortened: as §1

[29] = biological target: Man(a1-3)[Man(a1-6)]Man(a1-6)[Man(a1-3)]Man(b1-4)GlcNAc(b1-4)GlcNAc
Procedure, shortened: as §1

[30] = biological target: Man(a1-3)[Man(a1-6)]Man(b1-4)GlcNAc(b1-4)GlcNAc
Procedure, shortened: as §1

Man(a1-6)Man = biological target: Man(a1-6)Man
Procedure, shortened: as §1

Man(b1-4)GlcNAc = biological target: Man(b1-4)GlcNAc
Procedure, shortened: as §1

Neu5Ac(a2-3)Gal = biological target: Neu5Ac(a2-3)Gal
Procedure, shortened: as §1

[31] = biological target: Neu5Ac(a2-3)Gal(b1-3)GalNAc
Procedure, shortened: as §1

[32] = biological target: Neu5Ac(a2-3)Gal(b1-3)GalNAc(b1-3)Gal(a1-4)Gal(b1-4)Glc
Procedure, shortened: as §1

[33] = biological target: Neu5Ac(a2-3)Gal(b1-3)GalNAc(b1-3)Gal(b1-4)GlcNAc
Procedure, shortened: as §1

[34] = biological target: Neu5Ac(a2-3)Gal(b1-3)GalNAc(b1-4)[Neu5Ac(a2-3)]Gal(b1-4)Glc
Procedure, shortened: as §1

[35] = biological target: Neu5Ac(a2-3)Gal(b1-3)GalNAc6S
Procedure, shortened: as §1

[36] = biological target: Neu5Ac(a2-3)Gal(b1-3)GlcNAc
Procedure, shortened: as §1

B1: P-Selectin (Mus musculus), Q01102 (protein)
chain: MAGCPKGSWTPRLRSVILGGAQLIWFSALISELVNQKEVAAWTYNYSTKAYSWNNSRVFCRRHFTDLVAIQNKNEIAHLNDVIPFFNSYYWIGIRKINNKWTWVGTNKTLTEEAENWADNEPNNKKNNQDCVEIYIKSNSAPGKWNDEPCFKRKRALCYTASCQDMSCSNQGECIETIGSYTCSCYPGFYGPECEYVKECGKVNIPQHVLMNCSHPLGEFSFNSQCTFSCAEGYELDGPGELQCLASGIWTNNPPKCDAVQCQSLEAPPHGTMACMHPIAAFAYDSSCKFECQPGYRARGSNTLHCTGSGQWSEPLPTCEAIACEPPEIPIHGSMDCVPSTGTFGYNSSCTFLCAEGFVLKGNDAIQCADSGQWTAPAPFCEALQCPEFPVPSKAQVNCSDPFGTLTYQSVCSFSCDEGSLLVGASVIRCLATGHWNGAPPECQAVSCAPMLSPENGSMTCVQPLGNSTYKSTCQFMCDEGFYLSGPERLDCSPSGHWTGTPPTCEAIKCPGIFAPEQGNLDCSHVHGEFGVGSICHFSCNEDFELLGSENVECTVSGRWSAPPPTCKGITSLPAPAVRCPALTTPGQGTMSCQHHLGSFGPNTTCYFGCKTGFTLRGANSLRCRASGQWTAVTPMCRAVKCSELHMDTAVAMNCSNPWGNFSYGSTCTFQCPEGQSLNGSVRATCREDGHWSDAMPTCQAGTLTIQEALTYLGGAVASTTGLAVGGTLLALLRKRLRKKDDGKCPLNPHSHLGTYGVFTNAAYDPTP
glycan array binding signal (z-score) (GalNAc(b1-3)Gal): -0.351
glycan array binding signal (z-score) [1]: -0.42
glycan array binding signal (z-score) (GalNAc(b1-3)GalNAc): -0.507
glycan array binding signal (z-score) (GalNAc(b1-4)GlcNAc): -0.467
glycan array binding signal (z-score) (Glc(a1-4)Glc): -0.562
glycan array binding signal (z-score) (Glc(a1-6)Glc(a1-6)Glc): -0.486
glycan array binding signal (z-score) (Glc(b1-4)Glc): -0.122
glycan array binding signal (z-score) (Glc(b1-6)Glc): -0.498
glycan array binding signal (z-score) (GlcA(b1-3)Gal): -0.228
glycan array binding signal (z-score) (GlcA(b1-3)GlcNAc): -0.204
glycan array binding signal (z-score) (GlcA(b1-6)Gal): 0.05
glycan array binding signal (z-score) [2]: -0.599
glycan array binding signal (z-score) [3]: -0.56
glycan array binding signal (z-score) [4]: -0.618
glycan array binding signal (z-score) [5]: -0.263
glycan array binding signal (z-score) (GlcNAc(b1-3)Gal): -0.636
glycan array binding signal (z-score) [6]: -0.589
glycan array binding signal (z-score) (GlcNAc(b1-3)Gal(b1-4)Glc): -0.616
glycan array binding signal (z-score) [7]: 0.049
glycan array binding signal (z-score) [8]: -0.268
glycan array binding signal (z-score) (GlcNAc(b1-3)GalNAc): -0.559
glycan array binding signal (z-score) (GlcNAc(b1-3)Man): -0.32
glycan array binding signal (z-score) [9]: -0.393
glycan array binding signal (z-score) [10]: -0.63
glycan array binding signal (z-score) [11]: -0.369
glycan array binding signal (z-score) [12]: -0.719
glycan array binding signal (z-score) [13]: -0.478
glycan array binding signal (z-score) (GlcNAc(b1-4)GlcNAc): -0.315
glycan array binding signal (z-score) [14]: -0.278
glycan array binding signal (z-score) [15]: 0.482
glycan array binding signal (z-score) [16]: 0.215
glycan array binding signal (z-score) [17]: -0.478
glycan array binding signal (z-score) [18]: -0.39
glycan array binding signal (z-score) (GlcNAc(b1-6)GalNAc): -0.745
glycan array binding signal (z-score) (GlcNAc3Prop(b1-4)GlcNAc): -0.279
glycan array binding signal (z-score) (Kdn(a2-3)Gal(b1-3)GlcNAc): -0.37
glycan array binding signal (z-score) (Kdn(a2-3)Gal(b1-4)GlcNAc): -0.609
glycan array binding signal (z-score) [19]: -0.594
glycan array binding signal (z-score) [20]: -0.423
glycan array binding signal (z-score) (Man(a1-2)Man(a1-3)Man): -0.56
glycan array binding signal (z-score) [21]: -0.55
glycan array binding signal (z-score) [22]: -0.332
glycan array binding signal (z-score) [23]: -0.301
glycan array binding signal (z-score) [24]: -0.406
glycan array binding signal (z-score) [25]: -0.282
glycan array binding signal (z-score) [26]: -0.287
glycan array binding signal (z-score) (Man(a1-3)[Man(a1-6)]Man): -0.681
glycan array binding signal (z-score) [27]: -0.359
glycan array binding signal (z-score) [28]: -0.346
glycan array binding signal (z-score) [29]: -0.19
glycan array binding signal (z-score) [30]: -0.317
glycan array binding signal (z-score) (Man(a1-6)Man): -0.277
glycan array binding signal (z-score) (Man(b1-4)GlcNAc): -0.388
glycan array binding signal (z-score) (Neu5Ac(a2-3)Gal): -0.087
glycan array binding signal (z-score) [31]: -0.013
glycan array binding signal (z-score) [32]: -0.299
glycan array binding signal (z-score) [33]: -0.354
glycan array binding signal (z-score) [34]: -0.253
glycan array binding signal (z-score) [35]: 0.903
glycan array binding signal (z-score) [36]: -0.3

— the supplement of paper PMC8728848
